Results on two substances are retold here after PMC5786329.

Amino acid sequences for entries named in this document (tags omitted). A change or cut given only in a name is not applied to a line headed by its entry. Residues count along the entry.
UniProt P25054: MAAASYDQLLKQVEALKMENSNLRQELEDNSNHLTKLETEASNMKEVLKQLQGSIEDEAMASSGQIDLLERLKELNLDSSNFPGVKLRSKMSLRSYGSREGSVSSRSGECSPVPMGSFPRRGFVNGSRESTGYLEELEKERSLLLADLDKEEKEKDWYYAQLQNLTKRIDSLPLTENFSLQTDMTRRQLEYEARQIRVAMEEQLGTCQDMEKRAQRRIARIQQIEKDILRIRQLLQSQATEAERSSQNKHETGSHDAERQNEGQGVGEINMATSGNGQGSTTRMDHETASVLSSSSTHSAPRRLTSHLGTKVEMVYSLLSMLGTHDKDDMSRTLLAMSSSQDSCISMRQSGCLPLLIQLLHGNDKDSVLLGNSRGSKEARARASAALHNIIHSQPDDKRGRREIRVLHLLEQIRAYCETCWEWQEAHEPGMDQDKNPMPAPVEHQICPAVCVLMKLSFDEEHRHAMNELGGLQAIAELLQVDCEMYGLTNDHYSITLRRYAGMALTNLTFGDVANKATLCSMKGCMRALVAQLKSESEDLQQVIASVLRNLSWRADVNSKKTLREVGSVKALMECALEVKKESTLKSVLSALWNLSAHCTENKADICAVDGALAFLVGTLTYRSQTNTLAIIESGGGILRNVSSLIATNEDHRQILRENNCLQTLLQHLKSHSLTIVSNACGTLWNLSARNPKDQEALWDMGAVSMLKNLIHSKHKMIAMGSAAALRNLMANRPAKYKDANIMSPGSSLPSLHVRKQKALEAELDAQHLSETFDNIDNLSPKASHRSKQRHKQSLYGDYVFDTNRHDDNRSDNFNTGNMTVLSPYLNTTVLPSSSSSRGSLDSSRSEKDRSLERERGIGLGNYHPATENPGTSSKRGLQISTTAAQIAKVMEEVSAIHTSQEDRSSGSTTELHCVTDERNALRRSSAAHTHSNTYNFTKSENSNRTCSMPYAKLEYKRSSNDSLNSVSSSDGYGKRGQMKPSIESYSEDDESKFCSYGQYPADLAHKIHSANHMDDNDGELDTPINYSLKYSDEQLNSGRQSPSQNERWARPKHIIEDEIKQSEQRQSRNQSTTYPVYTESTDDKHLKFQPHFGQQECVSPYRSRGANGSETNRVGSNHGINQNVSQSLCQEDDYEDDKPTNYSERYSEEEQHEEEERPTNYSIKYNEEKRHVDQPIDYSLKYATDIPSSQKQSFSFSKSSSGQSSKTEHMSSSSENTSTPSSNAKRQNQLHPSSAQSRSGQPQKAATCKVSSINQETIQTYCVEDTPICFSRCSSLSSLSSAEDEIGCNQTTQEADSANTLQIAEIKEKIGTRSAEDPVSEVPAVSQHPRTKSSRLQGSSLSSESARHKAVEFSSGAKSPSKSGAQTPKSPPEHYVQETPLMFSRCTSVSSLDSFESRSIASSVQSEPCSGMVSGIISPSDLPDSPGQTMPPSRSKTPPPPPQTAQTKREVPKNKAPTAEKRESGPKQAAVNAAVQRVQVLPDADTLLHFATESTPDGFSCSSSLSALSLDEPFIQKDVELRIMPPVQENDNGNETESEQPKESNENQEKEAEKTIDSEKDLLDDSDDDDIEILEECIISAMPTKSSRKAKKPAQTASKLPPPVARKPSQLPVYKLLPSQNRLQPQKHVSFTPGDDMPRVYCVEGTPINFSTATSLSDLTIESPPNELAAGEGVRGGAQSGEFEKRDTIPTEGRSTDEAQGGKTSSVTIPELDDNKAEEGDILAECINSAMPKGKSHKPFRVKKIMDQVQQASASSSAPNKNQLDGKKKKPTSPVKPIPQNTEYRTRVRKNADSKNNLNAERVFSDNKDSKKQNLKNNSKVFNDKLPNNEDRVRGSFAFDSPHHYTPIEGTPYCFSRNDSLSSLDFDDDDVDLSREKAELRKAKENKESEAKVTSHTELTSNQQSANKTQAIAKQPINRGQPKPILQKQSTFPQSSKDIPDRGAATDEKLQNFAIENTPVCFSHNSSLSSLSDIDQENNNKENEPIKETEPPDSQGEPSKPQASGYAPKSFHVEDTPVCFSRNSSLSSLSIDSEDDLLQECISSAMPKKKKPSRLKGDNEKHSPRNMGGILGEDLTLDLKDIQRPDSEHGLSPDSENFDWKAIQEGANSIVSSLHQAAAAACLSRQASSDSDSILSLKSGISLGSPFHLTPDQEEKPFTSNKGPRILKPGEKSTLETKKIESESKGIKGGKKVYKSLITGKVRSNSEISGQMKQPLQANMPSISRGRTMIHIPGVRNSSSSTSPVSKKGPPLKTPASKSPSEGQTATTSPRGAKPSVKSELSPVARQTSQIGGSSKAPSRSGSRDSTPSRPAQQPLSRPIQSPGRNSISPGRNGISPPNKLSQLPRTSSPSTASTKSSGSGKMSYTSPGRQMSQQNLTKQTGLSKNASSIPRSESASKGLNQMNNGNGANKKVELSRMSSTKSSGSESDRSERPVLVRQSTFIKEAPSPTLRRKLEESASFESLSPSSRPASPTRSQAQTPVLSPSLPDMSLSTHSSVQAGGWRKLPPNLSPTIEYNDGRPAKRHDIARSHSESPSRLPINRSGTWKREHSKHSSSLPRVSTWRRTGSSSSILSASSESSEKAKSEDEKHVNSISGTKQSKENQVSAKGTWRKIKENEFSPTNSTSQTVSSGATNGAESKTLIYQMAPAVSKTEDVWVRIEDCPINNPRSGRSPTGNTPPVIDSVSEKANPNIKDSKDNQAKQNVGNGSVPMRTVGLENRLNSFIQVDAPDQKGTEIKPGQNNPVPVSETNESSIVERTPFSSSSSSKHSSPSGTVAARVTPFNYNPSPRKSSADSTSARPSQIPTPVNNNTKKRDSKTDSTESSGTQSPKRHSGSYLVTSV
adenomatous polyposis coli, C-terminally truncated, of SW480 cells (human (endogenous in SW480)): residues 1-1338 of P25054
UniProt P35222: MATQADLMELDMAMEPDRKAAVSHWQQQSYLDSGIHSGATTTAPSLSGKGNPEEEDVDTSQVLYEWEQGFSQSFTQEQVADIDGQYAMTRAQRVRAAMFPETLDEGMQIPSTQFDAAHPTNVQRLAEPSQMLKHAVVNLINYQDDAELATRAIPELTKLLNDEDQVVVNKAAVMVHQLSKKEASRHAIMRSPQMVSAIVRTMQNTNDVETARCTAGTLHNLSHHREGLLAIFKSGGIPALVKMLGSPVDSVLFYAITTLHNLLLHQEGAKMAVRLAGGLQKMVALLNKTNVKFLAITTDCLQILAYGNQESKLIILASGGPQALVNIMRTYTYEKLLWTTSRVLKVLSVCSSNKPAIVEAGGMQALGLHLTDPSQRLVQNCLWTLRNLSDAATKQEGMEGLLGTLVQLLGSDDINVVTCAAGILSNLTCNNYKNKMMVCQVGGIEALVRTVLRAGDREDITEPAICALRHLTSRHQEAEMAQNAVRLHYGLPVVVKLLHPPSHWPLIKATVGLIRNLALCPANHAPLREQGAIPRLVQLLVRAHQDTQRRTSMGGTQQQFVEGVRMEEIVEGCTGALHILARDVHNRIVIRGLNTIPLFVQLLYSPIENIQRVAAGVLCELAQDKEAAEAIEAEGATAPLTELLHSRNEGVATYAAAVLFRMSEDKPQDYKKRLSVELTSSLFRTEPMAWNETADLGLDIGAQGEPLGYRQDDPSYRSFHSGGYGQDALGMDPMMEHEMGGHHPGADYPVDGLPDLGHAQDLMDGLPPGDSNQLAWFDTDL
UniProt P49247: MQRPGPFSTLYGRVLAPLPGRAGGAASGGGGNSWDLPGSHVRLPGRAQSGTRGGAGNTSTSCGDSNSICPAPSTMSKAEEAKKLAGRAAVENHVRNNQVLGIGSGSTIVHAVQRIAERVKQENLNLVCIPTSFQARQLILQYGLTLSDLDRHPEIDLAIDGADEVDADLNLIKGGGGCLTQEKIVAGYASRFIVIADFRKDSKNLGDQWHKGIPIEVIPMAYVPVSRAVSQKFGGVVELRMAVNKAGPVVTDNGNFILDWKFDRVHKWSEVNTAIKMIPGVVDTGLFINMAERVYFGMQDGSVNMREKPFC

Experiment [1] deals with adenomatous polyposis coli, C-terminally truncated, of SW480 cells (human (endogenous in SW480)) (UniProt P25054). Description: co-IP; SW480 nuclear fraction; cells transfected with pcDNA, RPIA-WT or RPIA-ΔD; 100 μg lysate with anti-APC, anti-β-catenin or anti-RPIA antibody overnight, protein A/G-Sepharose 1.5 h, western blot.
For experiment [2], the target named is β-catenin of SW480 cells (human (endogenous in SW480)) (UniProt P35222). Described as above.
For experiment [3], the target named is adenomatous polyposis coli, wild type, of HCT116 cells (human (endogenous in HCT116)) (UniProt P25054). Kind of experiment: co-IP; HCT116 nuclear fraction; cells transfected with pcDNA, RPIA-WT or RPIA-ΔD; 100 μg lysate with anti-APC, anti-β-catenin or anti-RPIA antibody overnight, protein A/G-Sepharose 1.5 h, western blot. In general terms: Immunoblotting shows a protein as a band on a membrane.

The target of experiment [4] is adenomatous polyposis coli, C-terminally truncated, of SW480 cells (human (endogenous in SW480)) (UniProt P25054). Kind of experiment: co-IP; SW480 cytoplasmic fraction; cells transfected with pcDNA, RPIA-WT or RPIA-ΔD; 100 μg lysate with anti-APC, anti-β-catenin or anti-RPIA antibody overnight, protein A/G-Sepharose 1.5 h, western blot.
The target in experiment [5] is β-catenin of SW480 cells (human (endogenous in SW480)) (UniProt P35222). The description is as above.
For experiment [6], the target named is adenomatous polyposis coli, wild type, of HCT116 cells (human (endogenous in HCT116)) (UniProt P25054). Kind of experiment: co-IP; HCT116 cytoplasmic fraction; cells transfected with pcDNA, RPIA-WT or RPIA-ΔD; 100 μg lysate with anti-APC, anti-β-catenin or anti-RPIA antibody overnight, protein A/G-Sepharose 1.5 h, western blot.

Results are given in words; binding and its absence hold for the method and conditions named. In cells and extracts the contact can be indirect. Some binding calls cover weakened binding; strength is not graded here.

For the substance “RPIA deletion domain D mutant (from UniProt P49247 1-289) (domain or fragment)”, the binding result in experiment [1], in experiment [2], in experiment [3], in experiment [4], in experiment [5] and in experiment [6] was “no binding” each time.

For the substance “ribose-5-phosphate isomerase A, wild type (from UniProt P49247 1-311) (enzyme)”, the binding entry in experiment [1], in experiment [2], in experiment [3], in experiment [5] and in experiment [6] was “binds” throughout.
